{"source": "PubChem BioAssay AID463173", "about": "(ICCB-Longwood Screening Facility, Harvard Medical School, 2010)", "note": "The whole screen tested about 52,000 compounds, of which about 1,700 (3.3%) were called active. No stated cut-off is given here; in the data, active means survival mostly below about 52% (no sharp cut-off); inactive means mostly above about 56%. Some of the results follow."}
{"test_system": "Wild type", "assay": "growth inhibition of S. aureus wild type versus tarO mutant, primary screen, teichoic acid synthesis inhibitors, RN4220, OD600 (AID 463173)", "conditions": "S. aureus RN4220 wild type/DeltatarO growth, OD600, 18 h, stronger effect = lower value, screened at 18.75 µg/mL (by protocol)"}
{"smiles": "COc1cccc2c(=O)cc(C)[nH]c12", "survival": "inactive: 108%"}
{"smiles": "CC(NC(=O)CSc1nc(-c2ccccc2F)nc2cc(=O)[nH]n12)c1nc2ccccc2n1C", "note": "(stereo not given)", "survival": "inactive: 78%"}
{"smiles": "CN1/C(=C2/SC(=O)N(Cc3ccccc3)C2=O)Sc2ccccc21", "survival": "inactive: 118%"}
{"smiles": "O=C(Nc1ccc(N2CCOCC2)c(C(=O)O)c1)c1ccc(Br)cc1", "survival": "active: 0%"}
{"smiles": "Cc1ccc(CNC(=O)Cn2ccn(-c3ccc(F)cc3)c(=O)c2=O)cc1", "survival": "inactive: 83%"}
{"smiles": "CCC(=O)N1CCCc2cc(S(=O)(=O)N3CCC(C(=O)Nc4ccc(C#N)cc4)CC3)ccc21", "survival": "inactive: 140%"}
{"smiles": "Cc1cccc2c(=O)cc(CSc3ccccc3NC(=O)C(C)(C)C)[nH]c12", "survival": "inactive: 124%"}
{"smiles": "CCOC(=O)c1cc(S(=O)(=O)NCc2ccc(OC)cc2)[nH]n1", "survival": "inactive: 72%"}
{"smiles": "COc1ccc(OCc2ccc(-c3nc(C#N)c(NCc4cccnc4)o3)o2)cc1", "survival": "inactive: 81%"}
{"smiles": "CCCC(=O)Nc1ccccc1C(=O)OCc1cc(=O)n2nc(C(C)C)sc2n1", "survival": "inactive: 125%"}
{"smiles": "CC(=O)c1cccc(NC(=O)Cn2cc(C(=O)c3cccc(Cl)c3)c(=O)c3ccc(C)nc32)c1", "survival": "inactive: 75%"}
{"smiles": "COc1ccc(OC)c(S(=O)(=O)N2CCN(Cc3nc4ccc(C)cc4o3)CC2)c1", "survival": "inactive: 71%"}
{"smiles": "CCN(C(=O)Cn1c(=O)n(Cc2ccc3c(c2)OCO3)c(=O)c2ccc(C(=O)NC3CCCCC3)cc21)c1cccc(C)c1", "survival": "inactive: 86%"}
{"smiles": "COC(=O)c1ccc(-n2c(/C=C/c3cc(OC)c(OC)c(OC)c3)nc3cc(Cl)ccc3c2=O)cc1", "survival": "inactive: 71%"}
{"smiles": "Cc1cc(C)cc(NC(=O)N2CCN(C(=O)c3nsc4ccccc34)CC2)c1", "survival": "inactive: 78%"}
{"smiles": "COc1cc(NC(=O)Cn2nnnc2-c2ccccc2F)cc(OC)c1OC", "survival": "inactive: 86%"}
{"smiles": "Cc1ccc(CNC(=O)CCc2nc3cccnc3n2Cc2ccccc2)cc1", "survival": "inactive: 86%"}
{"smiles": "CC(=O)Nc1ccc(NC(=O)C(NS(=O)(=O)c2ccc(Br)s2)c2ccccc2)cc1", "note": "(stereo not given)", "survival": "inactive: 78%"}
{"smiles": "Cc1ccc(Cn2cc(S(=O)(=O)c3ccc(Cl)cc3)c(=O)c3cc4c(cc32)OCO4)cc1", "survival": "inactive: 90%"}
{"smiles": "COc1ccc(-c2cc3ccc(O)c(CN4CCCCC4C)c3oc2=O)cc1OC", "note": "(stereo not given)", "survival": "inactive: 76%"}
{"smiles": "CCOc1ccc2nc(N(Cc3cccnc3)C(C)=O)sc2c1", "survival": "inactive: 70%"}
{"smiles": "Cc1ccc(OCCSc2nc3ccc(NC(=O)c4ccco4)cc3s2)cc1", "survival": "inactive: 94%"}
{"smiles": "O=C(CCNS(=O)(=O)c1ccc2c(c1)CCN2C(=O)C1CC1)N1CCN(c2cccc(C(F)(F)F)c2)CC1", "survival": "inactive: 75%"}
{"smiles": "CCCc1ccc(OC(C)c2nc(-c3ccc(-n4cccc4)cc3)no2)cc1", "note": "(stereo not given)", "survival": "inactive: 56%"}
{"smiles": "COCc1oc2ccc(NS(=O)(=O)c3ccc(C)cc3)cc2c1C(=O)OC", "survival": "inactive: 73%"}
{"smiles": "CC(=O)N1CCc2cc(S(=O)(=O)NC(Cc3ccccc3)C(=O)NCc3ccccc3Cl)ccc21", "note": "(stereo not given)", "survival": "inactive: 72%"}
{"smiles": "Cn1c(=O)n(C)c2cc(N3CCOCC3)c(NS(=O)(=O)c3ccc(Cl)cc3)cc21", "survival": "inactive: 93%"}
{"smiles": "COc1ccccc1N1CCN(C(=O)c2cc3c(-c4ccccc4F)nn(C)c3s2)CC1", "survival": "inactive: 28%"}
{"smiles": "Cc1ccc(-n2c(=O)c3c(cnn3C)n(CC(=O)Nc3cccc(C)c3)c2=O)cc1", "survival": "inactive: 70%"}
{"smiles": "CCOC(=O)C1CCN(C(=O)CSc2n[nH]c(-c3ccc(OC)cc3)n2)CC1", "survival": "inactive: 136%"}
{"smiles": "CCOC(=O)Cn1c(CN2CCN(c3ccc(OC)cc3)CC2)nc2c1c(=O)[nH]c(=O)n2C", "survival": "inactive: 73%"}
{"smiles": "Cc1cc(=O)n(Cc2c(F)cccc2Cl)c2c1c(C)nn2C", "survival": "inactive: 71%"}
{"smiles": "COc1ccc(CCNC(=O)Cn2c(-c3ccc(F)cc3)cc(C(C)=O)c2C)cc1OC", "survival": "inactive: 54%"}
{"smiles": "Cc1ccc(C)c(OC(=O)CSc2nnc(-c3cccs3)o2)c1", "survival": "inactive: 82%"}
{"smiles": "COc1ccc2c(c1)CC(C(=O)NCCc1ccc(S(N)(=O)=O)cc1)CO2", "note": "(stereo not given)", "survival": "inactive: 71%"}
{"smiles": "COc1cc2ccccc2cc1C(=O)N1CCN(c2nc3c(F)cc(F)cc3s2)CC1", "survival": "inactive: 121%"}
{"smiles": "CCCC(=O)Nc1cc(-c2nnc3c4ccccc4c(C)nn23)ccc1C", "survival": "inactive: 72%"}
{"smiles": "COc1ccc(-n2c(=O)c3c(c4cc(OC)ccc4n3C)n(CC(=O)N3CCCC3)c2=O)cc1", "survival": "inactive: 135%"}
{"smiles": "COc1ccc(N2CCN(CCCNC(=O)c3ccc4nc(Cc5ccccc5)oc4c3)CC2)cc1", "survival": "inactive: 74%"}
{"smiles": "CCOc1ccc(CNC(=O)C2CCCN(c3nn4cc(-c5ccc(F)cc5)nc4s3)C2)cc1", "note": "(stereo not given)", "survival": "inactive: 76%"}
{"smiles": "Cc1cc(C)cc(NC(=O)c2cccc(C(=O)Nc3cc(C)cc(C)c3)c2)c1", "survival": "inactive: 143%"}
{"smiles": "Cc1ccc(NC(=O)C(C)Sc2nc3c(c(=O)[nH]2)CCCC3)cc1Cl", "note": "(stereo not given)", "survival": "inactive: 62%"}
{"smiles": "CSc1cccc(NC(=O)CN2C(=O)CCc3cc(S(=O)(=O)N4CCCCC4)ccc32)c1", "survival": "inactive: 49%"}
{"smiles": "CCc1ccc(NC(=O)CCCc2nnc3n(CCCOC)c(=O)c4sccc4n23)cc1", "survival": "inactive: 98%"}
{"smiles": "CCOc1ccccc1NC(=O)CSc1ccc2nc(-c3ccccc3)cn2n1", "survival": "inactive: 71%"}
{"smiles": "O=C(COc1ccccc1Cl)N(Cc1cccc(F)c1)C1CCS(=O)(=O)C1", "note": "(stereo not given)", "survival": "inactive: 82%"}
{"smiles": "CCOc1ccc(/C=N/n2nnnc2N)cc1OCC", "survival": "inactive: 106%"}
{"smiles": "CCc1ccc2oc(-c3ccc(NC(=O)c4cccc(Cl)c4Cl)cc3)nc2c1", "survival": "inactive: 81%"}
{"smiles": "O=C(Cn1cnc2c(nc3n2CCCCC3)c1=O)Nc1cccc(C(F)(F)F)c1", "survival": "inactive: 89%"}
{"smiles": "CCOc1ccc(/C=C/c2nc(C#N)c(NCCCN(C)C)o2)cc1", "survival": "inactive: 87%"}
{"smiles": "COC(=O)c1ccccc1NC(=O)Cn1c(=O)n(CCCC(=O)NCc2ccccc2Cl)c(=O)c2ccccc21", "survival": "inactive: 97%"}
{"smiles": "Cc1ccc(NC(=O)c2c(C)nn(-c3ccccc3)c2-n2cccc2)c(Cl)c1", "survival": "inactive: 78%"}
{"smiles": "Cc1ccc(Cc2nc3ccccc3nc2SCC(=O)NCc2ccccc2Cl)cc1", "survival": "inactive: 128%"}
{"smiles": "CCOC(=O)c1c(NC(=O)COc2ccc(C(C)(C)C)cc2)sc2c1CCCC2", "survival": "inactive: 69%"}
{"smiles": "CCc1cccc(CC)c1NC(=O)Cn1nnc2sc3c(c2c1=O)CCCC3", "survival": "inactive: 143%"}
